Assay results taken from the Bradley open melting point set (2014).

## CC(C)(C)c1ccc(O)cc1 [4-tert-butylphenol]
  melting point: 99 °C
